Where two headings read alike, the source gives them in different places. Marks after values point to notes of the source that are not given here.
System: Streptococcus pyogenes T18P
Type: cell-based
Settings: S. pyogenes

In the case of `CCCCCCCCCCCC(=O)OCC(O)CO` (stereo not shown) [GML, glycerol monolaurate], the “Average colony forming units from two wells” value (shortened to “Average colony forming units”) (GML 10 μg/ml, ratio 100:1) is reported as <10^b colony forming units, the “Average colony forming units” value (GML 10 μg/ml, ratio 1000:1) is reported as under 10 colony forming units and the “Average colony forming units” value (GML 20 μg/ml, ratio 100:1) is reported as under 10 colony forming units. For the same compound, the “Average colony forming units” value (GML 20 μg/ml, ratio 1000:1) was under 10 colony forming units.

Source: patent US20050215634A1 (priority 2003, published 2005)
